Source: PubChem BioAssay AID1468 (National Center for Advancing Translational Sciences (NCATS), 2008)
Several values for one entry are separate records, joined by “and”; a condition that tells them apart may be missing. Equal values may be shown once. Out of some 280,000 compounds screened, about 1,100 (0.39%) were called active. The inconclusive results got no clear call from the source; some entries with a clear call stand among them for comparison. The call rests on the fitted dose curve; in most records, active means well fitted inhibition curve with a large enough effect; inconclusive means small, poorly fitted or top-dose-only effect, or effect the other way; inactive means flat fitted curve, though single readings scatter. Potencies beside an inconclusive call are fits to weak or partial responses and may not hold up.

Each molecule was assayed against Microtubule-associated protein tau (Homo sapiens) (UniProt P10636) (assay: qHTS for Inhibitors of Tau Fibril Formation, Fluorescence Polarization). Conditions: K18 P301L tau heparin fibrillization, Alexa594 FP, 6 h; series mostly up to 57.7 µM; activity, negative = inhibition: at the top concentration.
Sequence of UniProt P10636 (P10636 whole entry, looked up): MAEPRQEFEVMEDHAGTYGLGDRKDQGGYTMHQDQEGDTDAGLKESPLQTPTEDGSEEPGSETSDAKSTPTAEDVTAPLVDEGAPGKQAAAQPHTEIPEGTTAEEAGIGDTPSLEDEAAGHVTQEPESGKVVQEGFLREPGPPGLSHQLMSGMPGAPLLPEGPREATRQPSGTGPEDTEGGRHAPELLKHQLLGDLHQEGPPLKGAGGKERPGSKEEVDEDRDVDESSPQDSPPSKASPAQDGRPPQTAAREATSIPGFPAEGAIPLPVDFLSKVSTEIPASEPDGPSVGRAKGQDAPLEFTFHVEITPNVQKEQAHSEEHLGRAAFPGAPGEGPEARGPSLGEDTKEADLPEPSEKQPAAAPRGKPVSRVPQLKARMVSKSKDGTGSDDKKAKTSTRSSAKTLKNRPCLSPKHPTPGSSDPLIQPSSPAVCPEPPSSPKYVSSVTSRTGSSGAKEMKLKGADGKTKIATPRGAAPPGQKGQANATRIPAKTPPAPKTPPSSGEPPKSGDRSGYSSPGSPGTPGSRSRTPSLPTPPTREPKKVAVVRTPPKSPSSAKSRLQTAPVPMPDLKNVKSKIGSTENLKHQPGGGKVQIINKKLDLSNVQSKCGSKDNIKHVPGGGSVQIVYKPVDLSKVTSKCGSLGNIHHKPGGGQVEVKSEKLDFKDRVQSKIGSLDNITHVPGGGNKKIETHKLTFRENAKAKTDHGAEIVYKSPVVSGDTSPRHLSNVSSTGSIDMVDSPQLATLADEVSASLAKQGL
Outline: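 Steps: dispense K18 P301L tau (15 uM plus 0.24 uM Alexa 594 tracer, final) in pH 7 sodium acetate; add compound; add heparin (20 uM final); incubate 6 hr, 37 C; add ThT (30 uM final); after 1 hr ambient, read FP.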
Further: nearly all actives have a fitted effect of over 55% in size.
On the % scale 0 is the no-effect control and ±100 the full control effect; potency means the concentration at half of the fitted maximal effect; tags describe the fitted curve by direction and shape.

SMILES	Potency	activity, negative = inhibition
Fc1ccc2[nH]c3c(Cl)ncnc3c2c1	inconclusive: 8.91 µM [inhibitor, single point]	
Cc1cc(NC(=O)CSc2nnc(-c3c[nH]c4ccccc34)n2-c2ccc(F)cc2)no1	inconclusive: 6.31 µM [inhibitor, partial curve]	
COc1ccc(N2CCN(c3nc(Cl)nc(Nc4ccc(F)cc4)n3)CC2)cc1		inactive: 4.65%
O=C(NCc1cccs1)c1ccc(N2CCCCC2)nc1		inactive: 1.11%
O=C(O)/C=C/C(=O)Nc1ccc(C(=O)c2ccccc2)cc1	inconclusive: 0.891 µM [inhibitor, partial curve]	
COc1ccc(-c2noc(CSc3nc4ccccc4c(=O)n3-c3ccccc3)n2)cc1	inconclusive: 39.8 µM [inhibitor, single point]	
COc1ccc(N2CCN(C(=O)C3CCN(S(=O)(=O)c4cnc[nH]4)CC3)CC2)cc1		inactive: 5.54%
O=C(CN1C(=O)c2ccccc2C1=O)NN1C(=O)c2ccccc2C1=O	inconclusive: 3.55 µM [inhibitor, single point]	
CCc1ccc(S(=O)(=O)c2nnn3c2nc(NCc2cccs2)c2sccc23)cc1	inconclusive: 3.16 µM [inhibitor, full curve]	
CN1CCN(C(c2ccc(F)cc2)c2sc3nc(-c4ccco4)nn3c2O)CC1 (stereo not drawn)		inactive: -10.8%
Cc1ccc(C(=O)NCCNc2ccc(Cl)cc2[N+](=O)[O-])o1		inactive: -13.6%
CCOC(=O)c1c(-c2ccccc2)csc1NC(=S)NC(=O)c1ccccc1	inconclusive: 3.55 µM [inhibitor, partial curve]	
CCOc1ccccc1NC(=O)C(Cc1ccccc1)NS(=O)(=O)c1ccc(Br)s1 (stereo not drawn)	inconclusive: 1 µM [inhibitor, full curve, poor fit]	
O=C(COc1ccccc1C(=O)NCc1ccncc1)Nc1ccc(Br)cc1	inconclusive: 44.7 µM [inhibitor, single point]	
CN(c1ccccc1)S(=O)(=O)c1cccc(NC(=O)c2ccc3ncsc3c2)c1	inconclusive: 17.8 µM [inhibitor, partial curve]	
CCOC(=O)C1C(=O)C(C(=O)OCC)C(c2cccnc2)NC1c1cccnc1 (stereo not drawn)	inconclusive: 2 µM [inhibitor, full curve, poor fit]	
CCN(CC)C(=O)c1sc2nc(-c3cccs3)cc(-c3cccs3)c2c1N		inactive: -4.89%
CN(C)/N=C/C=C1\CCC/C(=C\c2ccc(F)c(F)c2)C1=O		inactive: 0.993%
COc1ccc(CNS(=O)(=O)c2cc(C(=O)Nc3cc(Cl)cc(Cl)c3)ccc2F)cc1	active: 3.55 µM	
O=C(CCCc1ccccc1)NCCC1=CCCCC1		inactive: -0.756%
CN1c2cc(Cl)ccc2-c2nc(SCC(=O)Nc3ccc(F)cc3F)ncc2S1(=O)=O	inconclusive: 12.6 µM [inhibitor, partial curve]	
Cc1ccc(N2NC(=O)/C(=C\c3cc4c(cc3[N+](=O)[O-])OCO4)C2=O)cc1C	inconclusive: 12.6 µM [inhibitor, single point]	
CCN(C(=O)CSC1=Nc2ccccc2C2CC=NN12)C1CCS(=O)(=O)C1 (stereo not drawn)	inconclusive: 0.631 µM [inhibitor, partial curve]	

SMILES	Potency	activity, negative = inhibition
O=C(NC1CCCC1)c1ccc(CSc2nc3ccncc3n2Cc2ccccc2F)cc1	inconclusive: 4.47 µM [inhibitor, single point]	
Cc1cccc(CNc2ccc(C(CC(N)=O)NC(=O)c3cccc(Br)c3)cc2[N+](=O)[O-])c1 (stereo not drawn)		inactive: -11.1%
Cc1ccc(C)c(Cn2c(=O)n(-c3ccc(CC(=O)NCc4ccco4)cc3)c(=O)c3sccc32)c1	inconclusive: 1.78 µM [inhibitor, partial curve]	
CN(c1cccc(Cl)c1)S(=O)(=O)c1cccc(C(=O)NC2=NCCS2)c1		inactive: -8.11%
O=C(c1ccc2c(c1)N(Cc1ccccc1F)C(=O)c1ccccc1S2(=O)=O)N1CCCCCC1	inconclusive: 2.82 µM [inhibitor, partial curve, poor fit]	
O=C(C1COc2ccccc2O1)N(Cc1cccnc1)c1nc2ccc(F)cc2s1 (stereo not drawn)		inactive: -7.73%
O=C(NC1CCCC1)C(c1ccncc1)N(Cc1cccs1)C(=O)c1csnn1 (stereo not drawn)	inconclusive: 39.8 µM [inhibitor, single point]	
COc1ccc(NC(=O)Cn2c(=O)sc3ccccc32)cc1	inconclusive: 17.8 µM [inhibitor, single point]	
CCn1c(Cl)c(C=O)s/c1=N\S(=O)(=O)c1ccccc1	active: 7.08 µM	
CCN(C(=O)Cn1c(SCc2ccccc2F)nc2cccnc21)c1ccccc1		inactive: 2.41%
N#CC1=C(N)C(C#N)(C#N)C(c2ccc[nH]2)C2CCCC=C12 (stereo not drawn)	inconclusive: 39.8 µM [inhibitor, single point]	
O=C(Nc1cc(Cl)cc(Cl)c1)N1CCCC1	inconclusive: 22.4 µM [inhibitor, single point]	
Cc1ccc(-c2cc(C(=O)NCC3CCCO3)no2)cc1 (stereo not drawn)		inactive: -4.96%
Cc1ccc(NC(=O)Cn2c(=O)n(Cc3nc(-c4ccccc4)no3)c(=O)c3cc4c(cc32)OCO4)cc1C	inconclusive: 28.2 µM [inhibitor, partial curve]	
CN1C(=O)NC(c2ccc(O)cc2)C2=C1CN(c1ccccc1)C2=O (stereo not drawn)		inactive: -0.366%
Cc1cccc(NC(=S)NNC(=S)NCc2ccccc2)c1		inactive: 0.984%
COc1ccc2c(c1)CCc1c(C(=O)N3CCCCCC3)noc1-2		inactive: 8.1%
CCOc1ccc(C(=O)Nc2c(C(N)=O)oc3ccccc23)cc1	inconclusive: 7.94 µM [inhibitor, partial curve]	
Cc1cc2c(cc1C)CSC(c1c(O)ccc3ccccc13)SC2	active: 22.4 µM	
CCOC(=O)c1ccc(N2C(=O)c3[nH]nc(-c4ccccc4)c3C2c2cccs2)cc1 (stereo not drawn)	inconclusive: 28.2 µM [inhibitor, partial curve]	
COc1ccc(NC(=O)Cn2c(=O)n(CCc3ccccc3)c(=O)c3sc4ccccc4c32)cc1	inconclusive: 8.91 µM [inhibitor, partial curve]	
COC(=O)C1=C(C)NC(C)=C(C(=O)OC)C1c1ccc(-c2cccc(Cl)c2Cl)o1	inconclusive: 17.8 µM [inhibitor, partial curve]	
O=C(NCCCN1CCOCC1)c1ccc(-n2nc(C(F)(F)F)cc2-c2cccs2)cc1		inactive: -4.68%

SMILES	Potency	activity, negative = inhibition
COc1ccc(-c2cc(NCc3ccc(C)cc3)n3cnnc3n2)cc1		inactive: 3.11%
COc1ccc(-c2[nH]c(-c3ccccc3)nc2SCC(=O)NC2CCCC2)cc1	inconclusive: 28.2 µM [activator, single point] and inconclusive: 6.31 µM [activator, full curve]	
CCCC[C@H]1C[C@@H]1[C@@H]1N(P(=O)(c2ccccc2)c2ccccc2)[C@](CO)(c2ccccc2)CC12CC2		inactive: -5.38%
COc1c(CC=C(C)C)cc(C2CC(=O)c3c(O)cc(O)cc3O2)cc1CC=C(C)C (stereo not drawn)	inconclusive: 28.2 µM [inhibitor, partial curve]	
Cc1nc2ccc(C(C(F)(F)F)(C(F)(F)F)C(F)(F)F)cc2[nH]1	inconclusive: 22.4 µM [inhibitor, single point]	
Cc1ccc2nc(NC(=O)c3cc(-c4ccco4)nc4ccccc34)sc2c1		inactive: -2.92%
CCOC(=O)N1CCN(c2ncnc3c2cnn3-c2ccc(OC)cc2)CC1	inconclusive: 7.94 µM [inhibitor, full curve]	
Cc1cccc(/C=N/NC(=O)c2cc3c(s2)-c2ccccc2CC3)c1	inconclusive: 11.2 µM [inhibitor, partial curve]	
Cc1ccc(C2c3cccn3CCN2S(=O)(=O)c2ccc([N+](=O)[O-])cc2)cc1 (stereo not drawn)	inconclusive: 10 µM [activator, partial curve]	
O=C(Nc1nccs1)c1cn(-c2ccccc2)nc1-c1ccccc1	inconclusive: 28.2 µM [inhibitor, partial curve]	
Oc1ccc(C=Nc2ccc(N3CCOCC3)cc2)c(O)c1	inconclusive: 39.8 µM [inhibitor, single point]	
COCCNC(=O)CC(=O)N/N=C/c1cccc(C(=O)OC)c1	inconclusive: 0.355 µM [inhibitor, single point]	
Cc1ccc2nc(N3CCN(C(=O)C4COc5ccccc5O4)CC3)sc2c1 (stereo not drawn)		inactive: -7.57%
CC(=O)Nc1ccc(S(=O)(=O)N2CCN(c3cc(C)ccc3C)CC2)cc1	inconclusive: 25.1 µM [inhibitor, single point]	
N/C(=N\S(=O)(=O)c1cc(C(F)(F)F)cc(C(F)(F)F)c1)c1ccccc1	inconclusive: 1.26 µM [inhibitor, full curve, poor fit]	
O=C(Nc1ccccc1)c1ccc(NCc2ccco2)c(S(=O)(=O)N2CCOCC2)c1	inconclusive: 11.2 µM [inhibitor, partial curve]	
CC1=[N+](C)c2c(ccc3cccnc23)C1(C)C	inconclusive: 1.58 µM [activator, partial curve, poor fit]	
Clc1ccc2[nH]cc(-c3nnnn3-c3ccc4ccccc4c3)c2c1	inconclusive: 6.31 µM [inhibitor, partial curve]	
COc1ccccc1CNc1nc(-c2ccco2)nn1C(=O)c1ccccc1[N+](=O)[O-]		inactive: -2.97%
COC(=O)c1ccccc1NC(=O)CSc1nc2sc3c(c2c(=O)[nH]1)CCCC3	active: 14.1 µM	
CC(=O)NC(=O)NC1OC(=O)C(Cl)=C1Cl (stereo not drawn)	inconclusive: 35.5 µM [inhibitor, single point]	
Nc1nnnn1/N=C/c1ccccc1OCc1ccc(Cl)cc1Cl	inconclusive: 22.4 µM [inhibitor, single point]	
